These are yes or no findings as the source states them, for the method shown. Binding seen in cells or lysates may run through a third protein. Some results given as binding are weak or reduced against the parent protein; the word gives no strength.
What was measured:
[1] = biological target: GST-fused E2F1 residues 1–243 (UniProt Q01094); assay: pull-down; GST or GST-E2F1 fusion proteins incubated with in vitro-translated 35S-labeled EBNA3C proteins precleared with GST-beads; binding buffer 1x PBS, 0.1% NP-40, 0.5 mM DTT, 10% glycerol, protease inhibitors; SDS-PAGE and phosphoimager; only the target purified
[2] = biological target: GST-fused wild-type E2F1 (residues 1–437) (UniProt Q01094); assay: as above
[3] = biological target: flag-tagged wild-type E2F1 (residues 1–437) (UniProt Q01094); assay: co-IP; 10 million Saos-2 (pRb-/-) cells co-transfected, harvested after 36 h, RIPA buffer; IP with anti-flag antibody, blot with anti-myc
[4] = biological target: flag-tagged E2F1 mutant (residues 1–400), pRb binding deficient (UniProt Q01094); assay: as above
[5] = biological target: flag-tagged E2F1 residues 1–243 (UniProt Q01094); assay: co-IP; 10 million HEK 293 (pRb+/+) cells co-transfected, harvested after 36 h, RIPA buffer; IP with anti-flag antibody (M2), blot with anti-myc
[6] = biological target: flag-tagged E2F1 residues 243–437 (UniProt Q01094); assay: as above
[7] = biological target: flag-tagged wild-type E2F1 (residues 1–437) (UniProt Q01094); assay: as above
[8] = biological target: flag-tagged E2F1 residues 1–310 (UniProt Q01094); assay: as above
[9] = biological target: flag-tagged E2F1 mutant (residues 1–400), pRb binding deficient (UniProt Q01094); assay: as above

Row | Substance | binding [2] | also measured
1 | in vitro-translated EBNA3C (residues 1–992) (from UniProt P03204 1-992) | binds | binding [1]: binds
2 | in vitro-translated EBNA3C residues 1–100 (from UniProt P03204 1-100) (domain or fragment) | no binding | 
3 | in vitro-translated EBNA3C residues 1–129 (from UniProt P03204 1-129) (domain or fragment) | binds | 
4 | in vitro-translated EBNA3C residues 1–159 (from UniProt P03204 1-159) (domain or fragment) | binds | 
5 | in vitro-translated EBNA3C residues 1–250 (from UniProt P03204 1-250) (domain or fragment) | binds | 
6 | in vitro-translated EBNA3C residues 1–300 (from UniProt P03204 1-300) (domain or fragment) | binds | 
7 | in vitro-translated EBNA3C residues 1–365 (from UniProt P03204 1-365) (domain or fragment) | binds | 
8 | in vitro-translated EBNA3C residues 50–300 (from UniProt P03204 50-300) (domain or fragment) | binds | 
9 | in vitro-translated EBNA3C residues 130–300 (from UniProt P03204 130-300) (domain or fragment) | binds | 
10 | in vitro-translated EBNA3C residues 160–300 (from UniProt P03204 160-300) (domain or fragment) | binds | 
11 | in vitro-translated EBNA3C residues 200–300 (from UniProt P03204 200-300) (domain or fragment) | no binding | 
12 | myc-tagged EBNA3C (residues 1–992) (from UniProt P03204 1-992) |  | binding [3]: binds; binding [4]: binds; binding [5]: binds; binding [6]: no binding; binding [7]: binds; binding [8]: binds; binding [9]: binds
13 | myc-tagged EBNA3C residues 1–365 (from UniProt P03204 1-365) (domain or fragment) |  | binding [9]: binds
14 | myc-tagged EBNA3C residues 366–620 (from UniProt P03204 366-620) (domain or fragment) |  | binding [9]: no binding
15 | myc-tagged EBNA3C residues 700–900 (from UniProt P03204 700-900) (domain or fragment) |  | binding [9]: no binding

— PMC3305458, “E2F1 Mediated Apoptosis Induced by the DNA Damage Response Is Blocked by EBV Nuclear Antigen 3C in Lymphoblastoid Cells” (PLoS Pathogens, 2012)
